Results on 40 sequences are retold here after PMC12820563.

The list shows a part of the results. The list includes weakly bound sequences.

This experiment deals with T1, MBP-FoxP3dN (UniProt Q99JB6).
T1 sequence: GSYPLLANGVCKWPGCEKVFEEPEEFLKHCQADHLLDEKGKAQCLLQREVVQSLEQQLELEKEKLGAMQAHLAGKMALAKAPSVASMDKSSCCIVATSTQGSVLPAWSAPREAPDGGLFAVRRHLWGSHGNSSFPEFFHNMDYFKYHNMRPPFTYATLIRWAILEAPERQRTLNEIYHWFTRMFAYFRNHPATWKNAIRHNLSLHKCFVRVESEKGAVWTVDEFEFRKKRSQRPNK
As to the kind of experiment: PD-seq (MBP pull-down with sequencing). The settings on record: 20 mM Tris-HCl pH 7.5, 100 mM NaCl, 1.5 mM MgCl2, 0.4 uM protein, 0.1 uM dsDNA library, 30 min, room temperature, amylose pull-down; high values mean tight binding; double strand, one strand shown.
Turning to “GATGATTGTTCTCCCAGCTGATGAATTAACGACGTCGAGTAAACAAATTTTCCTAATCTTTCTGTTCAAGCGCCATCTAC”, the binding signal (RPM ratio (pull-down/input)) turned out to be 0.29. The value for “GATGATTGTTCTCCCAGCTGATGAATTTATCACTTCGAGTAAACAAATTTTCCTAATCTTTCTGTTCAAGCGCCATCTAC” was 2.16; that for “GATGATTGTTCTCCCAGCTGATGAATTTGTGTAATCGAGTAAACAAATTTTCCTAATCTTTCTGTTCAAGCGCCATCTAC” was 4.48.

Turning to “GATGATTGTTCTCCCAGCTGATGAATTCTTGAGATCGAGTAAACAAATTTTCCTAATCTTTCTGTTCAAGCGCCATCTAC”, the binding signal (RPM ratio (pull-down/input)) is 0.218.

For the sequence “GATGATTGTTCTCCCAGCTGATGAATTCCTCTCCTCGAGTAAACAAATTTTCCTAATCTTTCTGTTCAAGCGCCATCTAC”, the binding signal (RPM ratio (pull-down/input)) amounted to 0.223. For the sequence “GATGATTGTTCTCCCAGCTGATGAATTATAACTATCGAGTAAACAAATTTTCCTAATCTTTCTGTTCAAGCGCCATCTAC”, the binding signal (RPM ratio (pull-down/input)) was determined as 0.64. The value for “GATGATTGTTCTCCCAGCTGATGAATTTCAATGATCGAGTAAACAAATTTTCCTAATCTTTCTGTTCAAGCGCCATCTAC” was 0.513. The value for “GATGATTGTTCTCCCAGCTGATGAATTAGATTTATCGAGTAAACAAATTTTCCTAATCTTTCTGTTCAAGCGCCATCTAC” was 1.61; that for “GATGATTGTTCTCCCAGCTGATGAATTGTCGATCTCGAGTAAACAAATTTTCCTAATCTTTCTGTTCAAGCGCCATCTAC” was 0.472. For “GATGATTGTTCTCCCAGCTGATGAATTCCGGACCTCGAGTAAACAAATTTTCCTAATCTTTCTGTTCAAGCGCCATCTAC”, the binding signal (RPM ratio (pull-down/input)) is 0.208. For “GATGATTGTTCTCCCAGCTGATGAATTGCCCCGTTCGAGTAAACAAATTTTCCTAATCTTTCTGTTCAAGCGCCATCTAC” the value was 0.422; for “GATGATTGTTCTCCCAGCTGATGAATTTGTAATATCGAGTAAACAAATTTTCCTAATCTTTCTGTTCAAGCGCCATCTAC”, 1.95; for “GATGATTGTTCTCCCAGCTGATGAATTCTTTTCCTCGAGTAAACAAATTTTCCTAATCTTTCTGTTCAAGCGCCATCTAC”, 0.31. For “GATGATTGTTCTCCCAGCTGATGAATTCCCGGTATCGAGTAAACAAATTTTCCTAATCTTTCTGTTCAAGCGCCATCTAC” the value was 0.38; for “GATGATTGTTCTCCCAGCTGATGAATTGCACTAGTCGAGTAAACAAATTTTCCTAATCTTTCTGTTCAAGCGCCATCTAC”, 0.656. For “GATGATTGTTCTCCCAGCTGATGAATTTTGAATGTCGAGTAAACAAATTTTCCTAATCTTTCTGTTCAAGCGCCATCTAC” the value was 1.23; for “GATGATTGTTCTCCCAGCTGATGAATTGGTGGGGTCGAGTAAACAAATTTTCCTAATCTTTCTGTTCAAGCGCCATCTAC”, 0.857. Regarding “GATGATTGTTCTCCCAGCTGATGAATTGATGTCCTCGAGTAAACAAATTTTCCTAATCTTTCTGTTCAAGCGCCATCTAC”, the binding signal (RPM ratio (pull-down/input)) was 1.04. For “GATGATTGTTCTCCCAGCTGATGAATTGAATTTATCGAGTAAACAAATTTTCCTAATCTTTCTGTTCAAGCGCCATCTAC” the value was 1.43. The value for “GATGATTGTTCTCCCAGCTGATGAATTGATCGCTTCGAGTAAACAAATTTTCCTAATCTTTCTGTTCAAGCGCCATCTAC” was 0.427; that for “GATGATTGTTCTCCCAGCTGATGAATTTCCATAGTCGAGTAAACAAATTTTCCTAATCTTTCTGTTCAAGCGCCATCTAC” was 0.227. For “GATGATTGTTCTCCCAGCTGATGAATTGGATATGTCGAGTAAACAAATTTTCCTAATCTTTCTGTTCAAGCGCCATCTAC” the value was 0.942. With “GATGATTGTTCTCCCAGCTGATGAATTCGAAGCTTCGAGTAAACAAATTTTCCTAATCTTTCTGTTCAAGCGCCATCTAC”, the binding signal (RPM ratio (pull-down/input)) was found to be 0.282.

Regarding “GATGATTGTTCTCCCAGCTGATGAATTGGACCCGTCGAGTAAACAAATTTTCCTAATCTTTCTGTTCAAGCGCCATCTAC”, the binding signal (RPM ratio (pull-down/input)) came out at 0.245. For “GATGATTGTTCTCCCAGCTGATGAATTAGATCCTTCGAGTAAACAAATTTTCCTAATCTTTCTGTTCAAGCGCCATCTAC” the value was 0.283; for “GATGATTGTTCTCCCAGCTGATGAATTAGAGACCTCGAGTAAACAAATTTTCCTAATCTTTCTGTTCAAGCGCCATCTAC”, 0.273; for “GATGATTGTTCTCCCAGCTGATGAATTCCATGGCTCGAGTAAACAAATTTTCCTAATCTTTCTGTTCAAGCGCCATCTAC”, 0.31. The value for “GATGATTGTTCTCCCAGCTGATGAATTTGAATACTCGAGTAAACAAATTTTCCTAATCTTTCTGTTCAAGCGCCATCTAC” was 1.68; that for “GATGATTGTTCTCCCAGCTGATGAATTGGGGTAATCGAGTAAACAAATTTTCCTAATCTTTCTGTTCAAGCGCCATCTAC” was 0.52. As for “GATGATTGTTCTCCCAGCTGATGAATTAGGGCCGTCGAGTAAACAAATTTTCCTAATCTTTCTGTTCAAGCGCCATCTAC”, the binding signal (RPM ratio (pull-down/input)) was found to be 0.359. As to “GATGATTGTTCTCCCAGCTGATGAATTCCCATGCTCGAGTAAACAAATTTTCCTAATCTTTCTGTTCAAGCGCCATCTAC”, the binding signal (RPM ratio (pull-down/input)) was 0.399.

In the case of “GATGATTGTTCTCCCAGCTGATGAATTCCAGGGATCGAGTAAACAAATTTTCCTAATCTTTCTGTTCAAGCGCCATCTAC”, the binding signal (RPM ratio (pull-down/input)) worked out at 0.248. For “GATGATTGTTCTCCCAGCTGATGAATTAGCGGACTCGAGTAAACAAATTTTCCTAATCTTTCTGTTCAAGCGCCATCTAC” the value was 0.294. For “GATGATTGTTCTCCCAGCTGATGAATTGTCAGTTTCGAGTAAACAAATTTTCCTAATCTTTCTGTTCAAGCGCCATCTAC” the value was 0.465; for “GATGATTGTTCTCCCAGCTGATGAATTCAACGCCTCGAGTAAACAAATTTTCCTAATCTTTCTGTTCAAGCGCCATCTAC”, 0.564. The value for “GATGATTGTTCTCCCAGCTGATGAATTTAGAGCTTCGAGTAAACAAATTTTCCTAATCTTTCTGTTCAAGCGCCATCTAC” was 0.398; that for “GATGATTGTTCTCCCAGCTGATGAATTCCCCAGCTCGAGTAAACAAATTTTCCTAATCTTTCTGTTCAAGCGCCATCTAC” was 0.186. In the case of “GATGATTGTTCTCCCAGCTGATGAATTGTAGTGATCGAGTAAACAAATTTTCCTAATCTTTCTGTTCAAGCGCCATCTAC”, the binding signal (RPM ratio (pull-down/input)) stood at 1.2. Turning to “GATGATTGTTCTCCCAGCTGATGAATTGAAGACTTCGAGTAAACAAATTTTCCTAATCTTTCTGTTCAAGCGCCATCTAC”, the binding signal (RPM ratio (pull-down/input)) stood at 0.355. For “GATGATTGTTCTCCCAGCTGATGAATTTACGTGCTCGAGTAAACAAATTTTCCTAATCTTTCTGTTCAAGCGCCATCTAC” the value was 0.609.
